Results as given in paper PMC9927451.
These are yes or no findings as the source states them, for the method shown. Some results given as binding are weak or reduced against the parent protein; the word gives no strength. Where a sequence is shown, tags or fusion partners need not be part of it. Blank lines part the entries; values can stand above or below the binder they belong to.

Experiments:
Experiment in all cases: two-hybrid; bacterial two-hybrid (BACTH): CyaT18 and CyaT25 fusions co-expressed in E. coli BTH101 cya-; MacConkey agar with 1% maltose and 0.15 mM IPTG at 28°C; β-galactosidase activity of cultures grown overnight at 28°C
[1] = target: T1, MinE (PA3245), BACTH fusion (P. aeruginosa) (UniProt Q9HYZ5)
T1 sequence: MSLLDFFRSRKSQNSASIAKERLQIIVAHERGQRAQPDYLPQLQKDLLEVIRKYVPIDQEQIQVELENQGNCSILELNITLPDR

[2] = target: T2, MinC (P. aeruginosa), BACTH fusion (P. aeruginosa) (UniProt Q9HYZ7)
T2 sequence: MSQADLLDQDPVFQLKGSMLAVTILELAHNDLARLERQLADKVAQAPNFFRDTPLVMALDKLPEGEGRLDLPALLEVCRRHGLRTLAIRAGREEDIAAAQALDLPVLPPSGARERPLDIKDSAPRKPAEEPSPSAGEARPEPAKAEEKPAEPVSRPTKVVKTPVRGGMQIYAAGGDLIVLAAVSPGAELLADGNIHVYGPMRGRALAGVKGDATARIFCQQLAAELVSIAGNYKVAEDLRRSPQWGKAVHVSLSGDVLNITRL

[3] = target: MinD (PA3244), BACTH fusion (P. aeruginosa) (UniProt Q9HYZ6)

binding [1]: no binding
binding [2]: binds
B1: MinC (P. aeruginosa), BACTH fusion (protein, UniProt Q9HYZ7 1-263)
chain: T2 sequence

binding [1]: binds
binding [2]: binds
binding [3]: binds
B2: MinD (PA3244), BACTH fusion (protein, UniProt Q9HYZ6 1-271)
chain: MAKILVVTSGKGGVGKTTTSAAIGTGLALRGFKTVIVDFDVGLRNLDLIMGCERRVVYDFVNVVNGEATLTQALIKDKRLENLHVLAASQTRDKDALTKEGVEKVMAELRKDFEYIICDSPAGIEKGAHLAMYFADEAIVVTNPEVSSVRDSDRMLGLLASKSQRAEKGEEPIKEHLLLTRYNPERVTKGEMLGVDDVEEILAIRLLGVIPESQAVLKASNQGVPVILDEQSDAGQAYSDAVDRLLGKEIPHRFLDVQKKGFLQRLFGGRE

binding [1]: binds
B3: MinE (PA3245), BACTH fusion (protein, UniProt Q9HYZ5 1-84)
chain: T1 sequence
